# Measured values as given in PMC4336329 (PLoS ONE, 2015).
# Out of some 310,000 compounds screened, about 14,000 (4.5%) showed an effect of 50% or more. The effect is printed as a negative number. Some of the results follow.
# Biological target: human ether-à-go-go-related gene (hERG) potassium channel (human, UniProt Q12809)
# Assay: primary screen, population patch clamp on CHO cells stably expressing hERG
# 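Note: peak tail current of the secondary pulse compared with the same well before compound.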
# Sequence of human ether-à-go-go-related gene (hERG) potassium channel (Q12809 whole entry, looked up): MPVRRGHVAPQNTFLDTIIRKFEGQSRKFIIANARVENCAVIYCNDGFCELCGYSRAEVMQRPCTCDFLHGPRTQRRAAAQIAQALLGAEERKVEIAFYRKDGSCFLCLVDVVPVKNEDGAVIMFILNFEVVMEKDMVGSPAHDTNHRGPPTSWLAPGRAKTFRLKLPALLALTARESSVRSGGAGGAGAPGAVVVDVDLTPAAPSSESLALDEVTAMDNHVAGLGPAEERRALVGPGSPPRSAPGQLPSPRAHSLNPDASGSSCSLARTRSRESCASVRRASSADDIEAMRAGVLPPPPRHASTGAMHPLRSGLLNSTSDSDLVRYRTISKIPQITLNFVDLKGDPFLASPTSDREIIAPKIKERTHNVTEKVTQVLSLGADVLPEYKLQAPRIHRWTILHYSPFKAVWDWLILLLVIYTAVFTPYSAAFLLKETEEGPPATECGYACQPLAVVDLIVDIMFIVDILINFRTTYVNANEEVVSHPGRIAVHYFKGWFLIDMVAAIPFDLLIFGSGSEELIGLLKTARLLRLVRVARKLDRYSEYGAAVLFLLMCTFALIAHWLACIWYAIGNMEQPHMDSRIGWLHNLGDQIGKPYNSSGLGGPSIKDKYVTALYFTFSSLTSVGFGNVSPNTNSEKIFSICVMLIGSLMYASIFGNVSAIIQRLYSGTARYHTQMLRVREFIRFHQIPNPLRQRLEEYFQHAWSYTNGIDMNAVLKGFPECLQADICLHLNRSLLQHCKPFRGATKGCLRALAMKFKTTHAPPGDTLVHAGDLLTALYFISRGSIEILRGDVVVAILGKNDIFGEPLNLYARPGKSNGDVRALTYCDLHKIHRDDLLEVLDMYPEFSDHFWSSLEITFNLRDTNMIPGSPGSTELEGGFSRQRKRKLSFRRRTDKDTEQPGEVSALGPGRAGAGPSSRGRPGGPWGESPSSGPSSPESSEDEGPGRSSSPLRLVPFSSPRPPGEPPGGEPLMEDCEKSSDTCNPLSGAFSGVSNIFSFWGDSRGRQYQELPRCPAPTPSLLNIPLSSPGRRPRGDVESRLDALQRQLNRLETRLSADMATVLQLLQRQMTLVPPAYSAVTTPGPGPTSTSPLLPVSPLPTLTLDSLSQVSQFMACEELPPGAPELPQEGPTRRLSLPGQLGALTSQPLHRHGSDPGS
row,Structure (SMILES),"hERG current change (%, negative = inhibition) at 10uM [%]"
1,CCN(CC)CCCNC(=O)Cn1ncc2c(=O)oc3ccc(C)cc3c21,-7.17
2,O=C(O)CCc1ccc(-c2cccs2)n1NC(=O)c1ccc(Cl)cc1,9.36
3,Cl.NC[C@@H]1O[C@H](C23CC4CC(CC(C4)C2)C3)Cc2c1ccc(O)c2O,6.01
4,Cc1cnn(CCC(=O)NNC(=S)Nc2ccccc2)c1,-0.993
5,CCCn1c(SCC(=O)OCc2ccccc2)nc2c1c(=O)n(C)c(=O)n2C,-28.3
6,N/C(=N\OC(=O)c1ccc(Cl)c(Cl)c1)c1cccnc1,5.76
7,NC(=O)N(CCC(=O)O)c1ccccc1,-2.25
8,Cc1cc(Cl)c(OCCOCCN2CCCC(C)C2)c(Br)c1.O=C(O)C(=O)O (stereo not shown),-61.8
9,CC(C)(C)C(=O)Nc1cccc(-c2ncon2)c1,3.48
10,O=C(NCCN1CCN(C(=O)c2ccc(F)cc2)CC1)c1ccc(F)cc1,-70.1
11,CCOC(=O)c1cccc(N2C(=O)C3C(C(=O)NC4CC4)C4(C)C=CC3(O4)C2C(=O)NC(C)(C)C)c1 (stereo not shown),12.7
12,OCCC1CN(Cc2nc3c(s2)CCCC3)CCN1CCc1ccccc1 (stereo not shown),-61.4
13,CCOC(=O)/C(N=Nc1ccc(C(=O)O)cc1[N+](=O)[O-])=C(\C)O,54.9
14,C/C(=N\NC(=O)c1cccs1)c1ccncc1,48.5
15,CCOc1c(Cl)cc(C(=O)NCCN2CCCCC2)cc1Cl,-58.6
16,COc1ccc(-c2nnc(SC(C)C(=O)Nc3nccs3)n2Cc2ccccc2)cc1OC (stereo not shown),-18
17,CCCN1CCC(NC(=O)Cc2ccccc2C)CC1,18.9
18,COc1ccc(CNC(=O)c2cc(S(=O)(=O)N3CCOCC3)cn2C)cc1,0.824
19,O=C1CCN2C=Nc3cccc4ccc1c2c34,3.46
20,O=C(Nc1cccc(Cl)c1)c1cc(S(=O)(=O)N2CCCCC2)c[nH]1,-9.13
21,CCOc1ccc(N(CCCCO)C(=S)NC(=O)c2ccc(C)c(Br)c2)cc1,-2.94
22,Cn1ccnc1SCCNC(=O)CCc1nnc(CCCCc2ccccc2)o1,-12.9

row,Structure (SMILES),"hERG current change (%, negative = inhibition) at 10uM [%]"
1,CC(C)NC(=O)C(=O)c1cn(C)c2ccccc12,6.78
2,Cc1cc(C(=O)OCC(=O)NNC(=O)c2cccs2)ccc1[N+](=O)[O-],-2.58
3,CCC1CN(C(=O)N2CCC(C(=O)NCc3ccccc3C)CC2)c2ccccc2O1 (stereo not shown),-6.28
4,Cc1cccc(NC(=O)Cn2cc(C(=O)C3CC3)c3ccccc32)c1,15.5
5,CCc1c(C)nc2ncnn2c1N1CCCC(C(=O)Nc2cc(F)ccc2C)C1 (stereo not shown),-40.6
6,c1ccc2cc(-c3csnn3)ccc2c1,11.3
7,COc1cc(OC)c(OC)cc1/C=N/NC(=O)c1ccc(CSc2nc(C)cc(C)n2)cc1,13.4
8,O=C(CS(=O)(=O)c1cn(CC(=O)N2CCOCC2)c2ccccc12)NCc1ccc(F)cc1,23.9
9,O=C(CN1C(=O)NC2NC(=O)NC21)NN=C1CCCC1 (stereo not shown),2.89
10,O=C1OCCC1Sc1nnc(-c2cccnc2)n1-c1ccccc1F (stereo not shown),8.74
11,Cc1nc(CN2CCCC2=NC#N)n(-c2ccccc2)n1,4.04
12,COCCNS(=O)(=O)c1cc(Br)ccc1OC,3.48
13,CCOc1ccc(NCC(=O)c2ccc(C)cc2)cc1,7.06
14,COc1ccc(CCNC(=O)COC(=O)c2cnc(C)cn2)cc1,11.3
15,O=C(C1CCCCC1)N1CCC(O)(c2ccc(Cl)cc2)CC1,-10.7
16,CCC1=C2CC[C@H]3C(=O)N(c4ccccc4)C(=O)[C@H]3[C@H]2[C@@]2(C)C(=NCC(=O)OC)OC(=O)N2C1=O,25.7
17,Cc1ccc(-c2n[nH]c(=O)c3ccccc23)cc1S(=O)(=O)NCC1CCCO1 (stereo not shown),-25.2
18,Cc1cc(=O)oc2c3c(cc(OCC(=O)NCCC(=O)N[C@@H](C)C(=O)O)c12)OC(C)(C)CC3,8.02
19,NC(=O)c1cccn1Cc1ccccc1Cl,4.3
20,COc1cccc(C(=O)c2c[nH]c(C(=O)NCc3cccnc3)c2)c1,-8.04
21,CC(C)=CCc1c(O)c(CC=C(C)C)c2c(c1O)-c1cc(O)c(O)cc1CC2,-1.38
22,CCCC(=O)OCCNc1cc(SCc2ccco2)c2nonc2c1[N+](=O)[O-],-19

row,Structure (SMILES),"hERG current change (%, negative = inhibition) at 10uM [%]"
1,Cc1cccc(C(=O)NCC(=O)NC(C)c2ccc(-n3ccnc3)cc2)c1 (stereo not shown),-68.5
2,OC(CCc1cccc(Cl)c1)c1cccs1 (stereo not shown),13
3,COc1ccc(NC(=O)c2cccc3c(Br)cccc23)cc1,9.81
4,Cc1ccc(Oc2ccc(NC(=O)Cn3ccsc3=N)cc2)cc1.Cl,-45.1
5,COc1ccc(O)c(C(=O)CC(=O)c2ccccc2C)c1,18.3
6,O=C(CSc1nnc(-c2ccccn2)n1Cc1ccccc1)N1CCCC1,-20.1
7,Cc1ccc(C)c(N2C(=O)CC(Cc3ccccc3)C2=O)c1.Cl (stereo not shown),15.9
8,Cc1ccc(N(Cc2cc(=O)[nH]c3ccccc23)C(=O)CCl)c(C)c1,-6.17
9,CCNC(=O)NC1(C(=O)Nc2ccc3c(c2)CCC3)CCCCC1,2.35
10,COc1ccccc1NC(=O)CSc1nnc(NC(=O)C2CC2)s1,14.9
11,CN(CC(=O)Nc1ccc(N2CCOCC2)cc1)CC(=O)Nc1ccccc1C#N,-3.76
12,CCN(CC)S(=O)(=O)c1ccc(N2CCCC2)c(NC(=O)Cc2cc(OC)c(OC)c(OC)c2)c1,-8.43
13,Cc1ccccc1Cn1c(CN2CCc3ccccc3C2)nc2c1c(=O)n(C)c(=O)n2C,-15.9
14,CCN(CC)S(=O)(=O)c1ccc(Cl)c(C(=O)NC)c1,3.57
15,COc1ccc(C(=O)NCC(=O)N/N=C/C(C)=C/c2ccco2)cc1OC,6.09
16,COc1ccc(CCNC(=O)C(=O)NCCOc2ccccc2)cc1OC,-3.57
17,CC(=O)c1cccc(OCC(=O)N2CCCc3ccccc32)c1,-10.9
18,CC(Sc1nc2cc(Cl)ccc2s1)C(=O)Nc1cccc(S(=O)(=O)N2CCOCC2)c1 (stereo not shown),-34.3
19,Cc1ccc2nc(NC(=O)c3ccc(Br)o3)sc2c1,20.6
20,O=C(CN1CCN(Cc2ccc3c(c2)OCO3)CC1)Nc1ccc2c(c1)OCO2,-72.5
21,COc1ccc(NC(=O)C(=O)NCCN2CCN(C(=O)c3cccc(Br)c3)CC2)cc1,-31
22,Cc1ccc2c(c1)-c1[nH]c(=S)ncc1CS2,28.2

row,Structure (SMILES),"hERG current change (%, negative = inhibition) at 10uM [%]"
1,CC(C)N(CC(N)=O)C(=O)Cc1coc2cc3c(cc12)CCC3,2.54
2,Cc1ccn2c(NC(=O)c3cccs3)c(-c3ccccc3)nc2c1,-0.701
3,COc1ccccc1/C=C/C(=O)NCC(=O)N/N=C/c1ccc2c(c1)OCO2,1.44
4,Cc1cc(C)nc(NS(=O)(=O)c2ccc(NC(=O)CSc3nc4ccccc4[nH]3)cc2)n1,-18.2
5,Cc1ccc(N(C(=O)c2ccccn2)C(C(=O)NC2CCCCC2)c2ccncc2)cc1 (stereo not shown),3.84
6,Nc1ccccc1-c1nc2ccccc2[nH]c1=O,14.8
7,Clc1ccc(-n2nnnc2-c2cnc(-c3ccncc3)nc2-c2cccs2)cc1,-23.8
8,O=C(Nc1cccc(O)c1)c1ccc(NC(=O)c2cccs2)cc1,12.9
9,CCC1(CC)C(=O)C2=C3C1[C@H](C(=O)OC)C=C(C(=O)OC)C[C@H]3[C@H]1C(=O)N(Cc3ccccc3)C(=O)[C@H]1[C@H]2C (stereo partly shown),-17.2
10,COc1ccc2c(CC(=O)N3CCN(S(=O)(=O)c4ccc(F)cc4)CC3)coc2c1,-20.5
11,Cc1ccc2c(C(=O)CN3CCCC(C)C3)c(C)[nH]c2c1 (stereo not shown),-14.8
12,C[N+](C)(C)C[C@H](O)CC(=O)[O-],2.68
13,O=C(COC(=O)Cc1ccc(F)cc1)NC1CCS(=O)(=O)C1 (stereo not shown),1.22
14,CCOC(=O)C[C@H]1c2cc(C(F)(F)F)ccc2S(=O)(=O)N1Cc1ccccc1,-34.5
15,Cn1cc(CN2CCC(C(=O)Nc3cccc(-c4cccc(F)c4)c3)CC2)cn1,-67.4
16,O=C(Nc1nnc(S(=O)(=O)N2CCCCCC2)s1)c1ccc(Br)cc1,-0.762
17,O=C(CN1C(=O)NC2(CCCc3ccccc32)C1=O)NCc1cccs1 (stereo not shown),6.2
18,CCCCNC(=O)CCn1nc(-c2ccc(C)cc2)c2ccccc2c1=O,-18
19,C=CCOC(=O)C1=C[C@@H](c2cn(C(C)=O)c3ccccc23)C[C@@H](OCCCCO)O1,-43.9
20,Cc1oc2cc(Br)c(O)c(Br)c2c1C(=O)c1ccccc1,-35
21,COc1ccc(C)cc1S(=O)(=O)N1CCN(C)CC1c1ccccc1.Cl (stereo not shown),-8.75
22,Cc1ccc(NC(=O)C2CCN(S(=O)(=O)c3ccc4c(c3)NC(=O)CO4)CC2)cc1,-12.5
